Values marked as one replicate rest on one cluster of the flow cell; about a third of the high ones do not repeat.
system: ATP; assay: switch fluorescence ratio, 500 uM ATP over buffer (Cy3 cluster intensity, sum of 5 cycles each) (fold (ratio)); higher = stronger signal-on switching upon ATP binding; sequences stand for … in TCGTCGGCAGCGTCAGATGTGTATAAGAGACAGTTTTTTTTTTTTTTTTTTTTTTTTT…TC; details: aptamer strand: ATP DNA aptamer (quencher-CACCTGGGGGAGTATTGCGGAGGAAGG + anchor), 100 nM annealed; ATP concentration: 500 uM; one replicate
Summary of the method: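 Clusters with intensities outside 100-1000 RFU were excluded. The remaining Cy3-labelled switching-strand clusters on a modified Illumina MiSeq flow-cell had been annealed to 100 nM quencher-labelled ATP aptamer and imaged in selection buffer, then after 15 min with 500 uM ATP at 22 °C, for five cycles separated by NaOH stripping and re-annealing. The fluorescence ratio, averaged per switch-domain sequence, is each cluster's summed target-cycle Cy3 intensity over its summed buffer-cycle Cy3 intensity.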
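Also: ATP exposure 15 min at 22 °C before imaging.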

Sequence	switch fluorescence ratio
ACATTTTTT	1.03
ACCAACGTGC	1.36
ACCAAGATCA	1.04
ACCAAGATGA	0.994
ACCAATACGG	1.2
ACCACACATT	1.32
ACCACATCGA	1.08
ACCACCACCA	1.36
ACCACCGGGC	1.17
ACCACGGCTA	1.03
ACCACGTGGG	1.02
ACCACTAAGT	1.04
ACCACTGT	0.993
ACCACTTTAG	0.941
ACCAGACTGA	1.1
ACCAGATTCT	1
ACCAGCAACC	2.08
ACCAGCTAGT	1.01
ACCAGGCACT	1.11
ACCAGGGATA	1.04
ACCAGGTCCA	1.08
ACCATCAAA	1.01
ACCATCATGT	0.988
ACCATCGCGA	1.06
ACCATGATTG	1.02
ACCATGGAG	1.02

Sequence	switch fluorescence ratio
ACCATGGGTC	1.05
ACCATTGCTG	0.964
ACCCAACCGT	1.17
ACCCACAGCA	1.41
ACCCAGCTGT	1.13
ACCCAGGACG	1.33
ACCCAGGCAG	1.31
ACCCCAGTC	1.27
ACCCCCTTGT	1.37
ACCCCGGATC	1.15
ACCCGACAAG	1.24
ACCCGTATTG	1.04
ACCCGTCCGG	1.02
ACCCGTGTCA	0.974
ACCCTATGA	1.09
ACCCTCCGT	2.12
ACCCTCTTCC	2.16
ACCCTGACGG	1.28
ACCCTGCCGC	1.41
ACCCTTAGCT	1.05
ACCCTTTGAG	1.02
ACCCTTTTGG	0.987
ACCGACAATG	1.08
ACCGAGTCAT	1.06
ACCGCAGTAT	4.45
ACCGCGCCAC	2.82

Sequence	switch fluorescence ratio
ACCGGAAAGC	1.37
ACCGGAAGG	1.02
ACCGGCCAGG	1.06
ACCGGCGGTC	1
ACCGGGATTA	1.02
ACCGTCCAGG	1.02
ACCGTGCGTT	0.997
ACCGTGGGTT	0.992
ACCGTGTAGC	1.06
ACCGTGTAGG	1.18
ACCGTTACAT	1.21
ACCGTTGGGA	1
ACCTAATTTT	1.02
ACCTACCC	1.44
ACCTACGCCT	1.25
ACCTACGGTT	1.19
ACCTAGAACA	1.02
ACCTATGT	1.02
ACCTCATGAA	1.05
ACCTCCATG	1.09
ACCTCCGCCT	4.59
ACCTCCGGGG	1.1
ACCTCCTAAG	1.15
ACCTCTATCG	1.01
ACCTCTTCCG	2.98
ACCTGCTAGA	1.05

Sequence	switch fluorescence ratio
ACCTGGATTT	0.993
ACCTGGCAGC	1.06
ACCTGTGACG	1.1
ACCTGTGCTT	1.02
ACCTGTTATA	1.08
ACCTTACTCT	2.87
ACCTTATGAT	1.04
ACCTTCCCCC	3.36
ACCTTTCAGC	1.25
ACCTTTGTGA	1.01
ACCTTTGTT	0.999
ACCTTTTCTC	1.18
ACCTTTTGTC	1.05
ACCTTTTTCT	0.989
ACGAAAACAT	1.05
ACGAAATAG	0.99
ACGAAATCTT	1.02
ACGAAATTGT	1.07
ACGAACAGTC	1.25
ACGAACCAAC	1.35
ACGAACGGGT	1.12
ACGAAGAATG	0.995
ACGAAGACGG	0.993
ACGAATTATG	1.02
ACGACACT	1.85
ACGACAGCTC	1.76

Sequence	switch fluorescence ratio
ACGACAGTTT	1.01
ACGACATGAA	1.22
ACGACCTACT	1.58
ACGAGAATTA	1.04
ACGAGAGCCA	1.06
ACGAGCTTCG	0.983
ACGAGGAGAA	0.986
ACGAGGCGCG	0.993
ACGAGGCGCT	0.985
ACGAGGGA	1.08
ACGAGGGAAG	0.987
ACGAGGGGG	0.999
ACGAGGTAC	1.19
ACGAGGTATG	0.851
ACGAGGTGCT	1.06
ACGAGGTTAC	1.06
ACGAGTAAGA	1.02
ACGAGTCAAT	3.15
ACGAGTCTAT	1.04
ACGAGTGG	0.984
ACGAGTTTAG	1.01
ACGATAGCTT	1.2
ACGATAGTGG	0.974
ACGATATTTT	1.12
ACGATGCGGT	1.32
ACGATTATAA	0.96

Sequence	switch fluorescence ratio
ACGCACACC	1.55
ACGCACGGTA	1.49
ACGCAGGCAC	2.19
ACGCAGTGCC	1.11
ACGCAGTTTT	1
ACGCATAGGA	1.21
ACGCCAATAA	5.62
ACGCCATGCT	1.15
ACGCCCGGGC	1.01
ACGCCGAGAG	1.08
ACGCCGTGAC	1.28
ACGCCTGGTA	1.02
ACGCGAAACT	1.87
ACGCGCGCTT	0.997
ACGCGCGTAT	0.953
ACGCGCGTTT	1
ACGCGGAGGA	1.03
ACGCGTAATC	1.05
ACGCGTCTCT	1.01
ACGCTAGTCC	1.18
ACGCTGAGTT	1.02
ACGCTGGGTT	0.993
ACGCTGTCGT	1.01
ACGCTTCA	1.05
ACGGAACCG	1.1
ACGGAAGCAA	1.27

Sequence	switch fluorescence ratio
ACGGAATTAG	1.11
ACGGAGCGAC	3.13
ACGGAGGGCG	1.07
ACGGATCATC	1.01
ACGGATTTAA	1.01
ACGGCAGTTA	0.969
ACGGCATCCC	1.14
ACGGCCCATG	1.09
ACGGCGAATA	1.1
ACGGCGTCGT	0.995
ACGGCGTTTC	1.01
ACGGCTCGGA	1.03
ACGGCTGACG	1.06
ACGGCTGATC	1.05
ACGGCTGGGA	0.99
ACGGGAACGT	1
ACGGGAGGCG	0.963
ACGGGCGCGT	1.02
ACGGGGAAAC	1.06
ACGGGGACCA	1.06
ACGGGGACTT	1.07
ACGGGGCCC	1.02
ACGGGGGC	1.02
ACGGGTGAAG	1
ACGGGTGATC	1.05
ACGGTAACA	1.2

Sequence	switch fluorescence ratio
ACGGTCAGAT	1.04
ACGGTCTAAT	0.982
ACGGTGCCGA	1.04
ACGGTGCT	1.01
ACGGTTCACA	1.13
ACGGTTTTAT	1.01
ACGTAAATTA	1.59
ACGTAACAGC	1.28
ACGTAAGATC	1.13
ACGTAATTG	1.22
ACGTAGTCAA	1.95
ACGTATAAGT	1.05
ACGTCAAAAG	1.06
ACGTCAGCTG	1.01
ACGTCAGTTA	1.03
ACGTCCGGGC	1.05
ACGTCTTCGT	0.971
ACGTGAGAGT	1.08
ACGTGATGCA	1.02

Source: the supplement of paper PMC10126150
